# Experimental data: the supplement of paper PMC8728848
# Some of the results follow.
# Assays:
# Experiment in all cases: glycan array binding signal (z-score within array); higher = stronger binding
# Conditions in all cases: glycan notation: IUPAC condensed, linker removed
# [1] = target: Neu5Ac(a2-6)Gal(b1-4)GlcNAc(b1-2)Man(a1-3)[Man(a1-6)]Man(b1-4)GlcNAc(b1-4)GlcNAc
# Summary of the method: (§1)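 The binding signal is a Z-score computed within each array and averaged over linkers. Arrays of the same protein sequence at different concentrations or buffers were also averaged together. Data originate from 3228 arrays in the Consortium for Functional Glycomics database, kept only where the protein sequence was available.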
# [2] = target: Neu5Ac(a2-6)Gal(b1-4)GlcNAc(b1-2)Man(a1-3)[Neu5Ac(a2-3)Gal(b1-4)GlcNAc(b1-2)Man(a1-6)]Man(b1-4)GlcNAc(b1-4)GlcNAc
# Summary of the method: as §1
# [3] = target: Neu5Ac(a2-6)Gal(b1-4)GlcNAc(b1-2)Man(a1-3)[Neu5Ac(a2-6)Gal(b1-4)GlcNAc(b1-2)Man(a1-6)]Man(b1-4)GlcNAc(b1-4)GlcNAc
# Summary of the method: as §1
# [4] = target: Neu5Ac(a2-6)Gal(b1-4)GlcNAc(b1-2)Man(a1-3)[Neu5Ac(a2-6)Gal(b1-4)GlcNAc(b1-2)Man(a1-6)]Man(b1-4)GlcNAc(b1-4)[Fuc(a1-6)]GlcNAc
# Summary of the method: as §1
# [5] = target: Neu5Ac(a2-6)Gal(b1-4)GlcNAc(b1-2)Man(a1-6)Man(b1-4)GlcNAc(b1-4)GlcNAc
# Summary of the method: as §1
# [6] = target: Neu5Ac(a2-6)Gal(b1-4)GlcNAc(b1-2)Man(a1-6)[Gal(b1-4)GlcNAc(b1-2)Man(a1-3)]Man(b1-4)GlcNAc(b1-4)GlcNAc
# Summary of the method: as §1
# [7] = target: Neu5Ac(a2-6)Gal(b1-4)GlcNAc(b1-2)Man(a1-6)[GlcNAc(b1-2)Man(a1-3)]Man(b1-4)GlcNAc(b1-4)GlcNAc
# Summary of the method: as §1
# [8] = target: Neu5Ac(a2-6)Gal(b1-4)GlcNAc(b1-2)Man(a1-6)[Man(a1-3)]Man(b1-4)GlcNAc(b1-4)GlcNAc
# Summary of the method: as §1
# [9] = target: Neu5Ac(a2-6)Gal(b1-4)GlcNAc(b1-2)[Neu5Ac(a2-6)Gal(b1-4)GlcNAc(b1-4)]Man(a1-3)[GlcNAc(b1-4)][Neu5Ac(a2-6)Gal(b1-4)GlcNAc(b1-2)[Neu5Ac(a2-6)Gal(b1-4)GlcNAc(b1-6)]Man(a1-6)]Man(b1-4)GlcNAc(b1-4)GlcNAc
# Summary of the method: as §1
# [10] = target: Neu5Ac(a2-6)Gal(b1-4)GlcNAc(b1-2)[Neu5Ac(a2-6)Gal(b1-4)GlcNAc(b1-4)]Man(a1-3)[GlcNAc(b1-4)][Neu5Ac(a2-6)Gal(b1-4)GlcNAc(b1-4)Man(a1-6)]Man(b1-4)GlcNAc(b1-4)GlcNAc
# Summary of the method: as §1
# [11] = target: Neu5Ac(a2-6)Gal(b1-4)GlcNAc(b1-2)[Neu5Ac(a2-6)Gal(b1-4)GlcNAc(b1-6)]Man(a1-6)[Neu5Ac(a2-6)Gal(b1-4)GlcNAc(b1-2)Man(a1-3)][GlcNAc(b1-4)]Man(b1-4)GlcNAc(b1-4)GlcNAc
# Summary of the method: as §1
# [12] = target: Neu5Ac(a2-6)Gal(b1-4)GlcNAc(b1-3)Gal(b1-3)GlcNAc
# Summary of the method: as §1
# [13] = target: Neu5Ac(a2-6)Gal(b1-4)GlcNAc(b1-3)Gal(b1-4)GlcNAc
# Summary of the method: as §1
# [14] = target: Neu5Ac(a2-6)Gal(b1-4)GlcNAc(b1-3)Gal(b1-4)GlcNAc(b1-2)Man(a1-3)[Neu5Ac(a2-6)Gal(b1-4)GlcNAc(b1-3)Gal(b1-4)GlcNAc(b1-2)Man(a1-6)]GalNAc
# Summary of the method: as §1
# [15] = target: Neu5Ac(a2-6)Gal(b1-4)GlcNAc(b1-3)Gal(b1-4)GlcNAc(b1-3)Gal(b1-4)GlcNAc
# Summary of the method: as §1
# [16] = target: Neu5Ac(a2-6)Gal(b1-4)GlcNAc(b1-3)Gal(b1-4)GlcNAc(b1-3)Gal(b1-4)GlcNAc(b1-2)Man(a1-3)[Neu5Ac(a2-6)Gal(b1-4)GlcNAc(b1-3)Gal(b1-4)GlcNAc(b1-3)Gal(b1-4)GlcNAc(b1-2)Man(a1-6)]GalNAc
# Summary of the method: as §1
# [17] = target: Neu5Ac(a2-6)Gal(b1-4)GlcNAc(b1-3)Gal(b1-4)GlcNAc(b1-3)GalNAc
# Summary of the method: as §1
# [18] = target: Neu5Ac(a2-6)Gal(b1-4)GlcNAc(b1-3)Gal(b1-4)GlcNAc(b1-3)[Neu5Ac(a2-6)Gal(b1-4)GlcNAc(b1-3)Gal(b1-4)GlcNAc(b1-6)]GalNAc
# Summary of the method: as §1
# [19] = target: Neu5Ac(a2-6)Gal(b1-4)GlcNAc(b1-3)Gal(b1-4)GlcNAc(b1-6)[Gal(b1-3)]GalNAc
# Summary of the method: as §1
# [20] = target: Neu5Ac(a2-6)Gal(b1-4)GlcNAc(b1-3)Gal(b1-4)[Fuc(a1-3)]GlcNAc(b1-3)Gal(b1-4)[Fuc(a1-3)]GlcNAc
# Summary of the method: as §1
# [21] = target: Neu5Ac(a2-6)Gal(b1-4)GlcNAc(b1-3)GalNAc
# Summary of the method: as §1
# [22] = target: Neu5Ac(a2-6)Gal(b1-4)GlcNAc(b1-3)[Neu5Ac(a2-6)Gal(b1-4)GlcNAc(b1-6)]GalNAc
# Summary of the method: as §1
# [23] = target: Neu5Ac(a2-6)Gal(b1-4)GlcNAc(b1-6)GalNAc
# Summary of the method: as §1
# [24] = target: Neu5Ac(a2-6)Gal(b1-4)GlcNAc(b1-6)[Gal(b1-3)GlcNAc(b1-3)]Gal(b1-4)Glc
# Summary of the method: as §1
# [25] = target: Neu5Ac(a2-6)Gal(b1-4)GlcNAc(b1-6)[Gal(b1-3)]GalNAc
# Summary of the method: as §1
# [26] = target: Neu5Ac(a2-6)Gal(b1-4)GlcNAc6S
# Summary of the method: as §1
# [27] = target: Neu5Ac(a2-6)GalNAc
# Summary of the method: as §1
# [28] = target: Neu5Ac(a2-6)GalNAc(b1-4)GlcNAc
# Summary of the method: as §1
# [29] = target: Neu5Ac(a2-6)GalNAc(b1-4)GlcNAc6S
# Summary of the method: as §1
# [30] = target: Neu5Ac(a2-6)GlcNAc(b1-4)GlcNAc
# Summary of the method: as §1
# [31] = target: Neu5Ac(a2-6)GlcNAc(b1-4)GlcNAc(b1-4)GlcNAc
# Summary of the method: as §1
binder,measurement,setting,value
PX9937D-bvu-500-26-500 (Bacteroides vulgatus) (protein) DPVSDITDLNYWKTPEQFDSFVFGLHSRFRSHSWNMFLLGEARSDVFGGIPFGGEATQGMERFPYNTLNAENPGISGFGDLYQNINQMNLFISRTLHTDVLTESARNYYLGQVYGLRAYYMYQLYRSWGDVVFTEEPSLGFEVGKLAKAATPAAEIFEQVKKDIESSLSYFGSDYTIKEKKSLWSKAATLMLKADVYLWSAHRDGGEGDARTAKNALVDIQNNISRSNLDLMDTYQGVFAYDNKGNKEIIFTIHNELFEYNLWNGNNDLFPQADYLGKFYNADGTLINTSVENNFGIMRLMVKLENFKKFLPGDTRRDVTLKDVYNKVENGKLELVGVYPHKYWGVMNGSTRVRCDDYPIYRYSDLLLMLAEAKVLLGEDPATEINRVRRRAFGDAYDASTVGFPNQEVDKRPADAVLQERLFEFMLEGKRWYDLRRFGDSYVLDYTPAEPARLLWPINQGALTNNPLLKQTVGY,glycan array binding signal (z-score),[1],1.14
same,glycan array binding signal (z-score),[2],-0.701
same,glycan array binding signal (z-score),[3],-0.307
same,glycan array binding signal (z-score),[4],-0.318
same,glycan array binding signal (z-score),[5],-0.093
same,glycan array binding signal (z-score),[6],-0.559
same,glycan array binding signal (z-score),[7],-0.3
same,glycan array binding signal (z-score),[8],-0.46
same,glycan array binding signal (z-score),[9],-0.102
same,glycan array binding signal (z-score),[10],-0.426
same,glycan array binding signal (z-score),[11],0.914
same,glycan array binding signal (z-score),[12],-0.424
same,glycan array binding signal (z-score),[13],-0.037
same,glycan array binding signal (z-score),[14],4.23
same,glycan array binding signal (z-score),[15],-0.273
same,glycan array binding signal (z-score),[16],0.395
same,glycan array binding signal (z-score),[17],-0.414
same,glycan array binding signal (z-score),[18],0.005
same,glycan array binding signal (z-score),[19],0.256
same,glycan array binding signal (z-score),[20],0.021
same,glycan array binding signal (z-score),[21],1.81
same,glycan array binding signal (z-score),[22],-0.473
same,glycan array binding signal (z-score),[23],-0.488
same,glycan array binding signal (z-score),[24],-0.417
same,glycan array binding signal (z-score),[25],-0.138
same,glycan array binding signal (z-score),[26],0.18
same,glycan array binding signal (z-score),[27],-0.272
same,glycan array binding signal (z-score),[28],-0.453
same,glycan array binding signal (z-score),[29],-0.324
same,glycan array binding signal (z-score),[30],-0.483
same,glycan array binding signal (z-score),[31],0.037
